Laboratory results as given in the antibiotic and cytotoxicity screens of Wong et al. (2023).
Some of the results follow.

These compounds were tested on S. aureus RN4220 (assay: growth inhibition call (relative growth <= 0.2)). Conditions: 50 µM.

Growth inhibition call, inactive:
C[C@H]1CN([C@@H](C)CO)C(=O)c2cc(NC(=O)Cn3cnnn3)ccc2O[C@@H]1CN(C)C(=O)Nc1ccc(C(F)(F)F)cc1, C[C@H](CO)N1C[C@H](C)[C@@H](CN(C)Cc2ccccc2)Oc2c(NC(=O)c3ccc(-c4nccs4)cc3)cccc2C1=O, NC(=O)[C@@H]1CCCN1C(=O)[C@H](Cc1c[nH]cn1)NC(=O)[C@@H]1CCC(=O)N1, CC(C)NC(=O)N(C)C[C@H]1OCCCC[C@@H](C)Oc2ccc(NC(=O)Nc3ccc(F)cc3)cc2C(=O)N([C@@H](C)CO)C[C@H]1C, NC(=O)CCN1C(=O)[C@@H]2[C@@H](C1=O)[C@@H]1C=C[C@@H]2C1, O=C(C[C@@H]1CC[C@H]2[C@@H](COC[C@@H](O)CN2C(=O)Nc2cccc(Cl)c2)O1)NCc1ccccc1F, C[C@H](CO)N1C[C@H](C)[C@H](CN(C)Cc2ccc(Cl)c(Cl)c2)OCCCC[C@H](C)Oc2ccc(NC(=O)Nc3ccc(F)cc3)cc2C1=O, Cc1noc(C)c1NC(=O)N(C)C[C@@H]1Oc2ccc(NS(=O)(=O)c3cccs3)cc2CC(=O)N([C@@H](C)CO)C[C@@H]1C, C[C@H]1CN([C@@H](C)CO)C(=O)c2cc(NC(=O)Cn3cnnn3)ccc2O[C@@H]1CN(C)C(=O)NC1CCCCC1, C[C@@H]1CCCCO[C@H](CN(C)C(=O)Nc2cccc3ccccc23)[C@H](C)CN([C@@H](C)CO)C(=O)c2cc(NS(=O)(=O)c3ccc(F)cc3)ccc2O1, C[C@@H]1CN([C@H](C)CO)C(=O)c2cc(NC(=O)Nc3ccc4c(c3)OCO4)ccc2O[C@H]1CN(C)Cc1ccc(Oc2ccccc2)cc1, O=C(O)CCCCC(=O)O, Cc1ccc(S(=O)(=O)N(C)C[C@H]2Oc3c(NC(=O)Nc4ccc(C(F)(F)F)cc4)cccc3C(=O)N([C@H](C)CO)C[C@H]2C)cc1, COc1ccc(S(=O)(=O)N(C)C[C@H]2Oc3ncc(C#CC4(O)CCCC4)cc3C(=O)N([C@@H](C)CO)C[C@H]2C)cc1, CC1COc2c(C3(N)CC3)c(F)cc3c(=O)c(C(=O)O)cn1c23.CS(=O)(=O)O (centres undefined), CC(=O)N[C@H]1CC[C@@H](CCNC(=O)C2CC2)O[C@H]1CO, C[C@@H]1CN([C@H](C)CO)C(=O)c2cc(C3=CCCCC3)cnc2O[C@H]1CN(C)C(=O)CN1CCOCC1, Cc1noc(C)c1S(=O)(=O)Nc1ccc2c(c1)C(=O)N([C@H](C)CO)C[C@@H](C)[C@@H](CN(C)S(=O)(=O)c1c(C)noc1C)O2, C[C@H]1CN([C@@H](C)CO)C(=O)Cc2cc(NS(C)(=O)=O)ccc2O[C@@H]1CN(C)C(=O)NC1CCCCC1, C[C@H](CO)N1C[C@H](C)[C@H](CN(C)C(=O)Cc2ccncc2)Oc2cc(C#CC3(O)CCCC3)ccc2S1(=O)=O, CN1CCN(C(=O)C[C@@H]2CC[C@H](NC(=O)Cc3ccccn3)[C@H](CO)O2)CC1, O=C(Nc1ccc(C(=O)Nc2ccc(C(=O)Nc3ccc(S(=O)(=O)O)c4cc(S(=O)(=O)O)cc(S(=O)(=O)O)c34)cc2)cc1)Nc1ccc(C(=O)Nc2ccc(C(=O)Nc3ccc(S(=O)(=O)O)c4cc(S(=O)(=O)O)cc(S(=O)(=O)O)c34)cc2)cc1, C[C@H]1CN([C@@H](C)CO)C(=O)Cc2cc(NC(=O)CCN3CCOCC3)ccc2O[C@H]1CN(C)S(=O)(=O)c1cn(C)cn1, C[C@@H]1CN([C@@H](C)CO)C(=O)c2cc(NS(=O)(=O)c3cn(C)cn3)ccc2O[C@@H](C)CCCCO[C@H]1CN(C)CC1CC1, O=C1N(CCS(=O)(=O)c2ccccc2)Cc2ccccc2C[C@@]12COC(c1ccc(OCCCO)cc1)=N2, COc1ccccc1CNC(=O)C[C@H]1C[C@@H]2c3cc(NC(=O)Nc4ccc(C(F)(F)F)cc4)ccc3O[C@@H]2[C@H](CO)O1, C[C@@H]1CN([C@@H](C)CO)C(=O)c2cc(NC(=O)Nc3ccccc3)ccc2O[C@H]1CN(C)C(=O)Nc1cccc2ccccc12, C[C@@H]1CN([C@@H](C)CO)C(=O)c2cc(NC(=O)CCC(F)(F)F)ccc2O[C@@H](C)CCCCO[C@@H]1CN(C)S(=O)(=O)c1ccccc1, COCC(=O)Nc1ccc2c(c1)OC[C@H](C)N(Cc1ccccc1OC)C[C@H](C)[C@H](OC)CN(C)C2=O
